Data published in paper PMC4336329 (PLoS ONE, 2015).
About 2,200 (0.71%) of roughly 310,000 compounds showed an effect of 50% or more. The effect is printed as a negative number. The list shows a part of the results.

These compounds were tested against human ether-à-go-go-related gene (hERG) potassium channel (human, UniProt Q12809) (assay: primary screen, population patch clamp on CHO cells stably expressing hERG).
Chain of human ether-à-go-go-related gene (hERG) potassium channel (Q12809 whole entry, looked up): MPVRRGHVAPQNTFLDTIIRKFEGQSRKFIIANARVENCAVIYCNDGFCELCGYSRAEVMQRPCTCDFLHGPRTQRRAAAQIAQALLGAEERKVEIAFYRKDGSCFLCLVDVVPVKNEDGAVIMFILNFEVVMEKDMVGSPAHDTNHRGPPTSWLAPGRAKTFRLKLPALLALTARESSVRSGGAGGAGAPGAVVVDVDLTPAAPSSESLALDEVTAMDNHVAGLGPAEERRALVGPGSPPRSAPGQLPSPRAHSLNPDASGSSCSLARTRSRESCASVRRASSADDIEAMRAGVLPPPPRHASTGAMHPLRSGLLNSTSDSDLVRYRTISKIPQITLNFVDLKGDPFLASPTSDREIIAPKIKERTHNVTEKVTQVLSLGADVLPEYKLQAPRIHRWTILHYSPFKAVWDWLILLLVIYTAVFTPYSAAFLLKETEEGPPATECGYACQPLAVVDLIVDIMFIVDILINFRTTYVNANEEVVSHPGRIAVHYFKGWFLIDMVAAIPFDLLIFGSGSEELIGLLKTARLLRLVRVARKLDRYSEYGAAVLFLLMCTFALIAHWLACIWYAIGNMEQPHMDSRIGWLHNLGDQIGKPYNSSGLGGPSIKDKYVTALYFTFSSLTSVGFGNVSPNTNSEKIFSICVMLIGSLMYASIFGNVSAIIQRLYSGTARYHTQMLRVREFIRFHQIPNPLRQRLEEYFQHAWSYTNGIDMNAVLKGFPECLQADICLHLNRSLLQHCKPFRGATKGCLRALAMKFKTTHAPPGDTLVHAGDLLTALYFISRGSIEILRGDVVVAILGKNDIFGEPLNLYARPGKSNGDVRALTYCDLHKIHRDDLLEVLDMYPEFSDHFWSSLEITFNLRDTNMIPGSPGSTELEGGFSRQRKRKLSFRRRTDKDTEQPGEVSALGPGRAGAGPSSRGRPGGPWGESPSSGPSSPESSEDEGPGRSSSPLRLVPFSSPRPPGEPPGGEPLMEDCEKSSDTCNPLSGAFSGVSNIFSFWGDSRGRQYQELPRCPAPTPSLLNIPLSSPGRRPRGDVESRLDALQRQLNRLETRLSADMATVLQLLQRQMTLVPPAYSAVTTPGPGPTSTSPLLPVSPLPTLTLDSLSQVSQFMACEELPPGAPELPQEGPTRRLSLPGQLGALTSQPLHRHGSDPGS

Structure (SMILES)	hERG current change (%, negative = inhibition) at 1uM
CC#CC(=O)N1CCC(n2nccc2NC(=O)c2ccc3c(c2)OCO3)CC1	-10.2%
CCCc1nc2c(nnn2Cc2ccccc2Cl)c(=O)[nH]1	36.2%
Cc1cccc(C)c1NC(=O)NN=C1CCCCC1	13.8%
Cc1cc(C)cc(C(=O)NCCCc2ccccc2)c1	12.3%
COc1ccccc1CNC(=O)C1CCN(C(=O)NC2CCCCC2)CC1	10.7%
O=C(CSCc1ccc(Br)cc1)NCCc1ccccc1	9.23%
CC(C(=O)Nc1ccc(N2CCOCC2)cc1)N1C(=O)NC(C)(C)C1=O (stereo not drawn)	15.8%
O=C(c1ccc(-c2cccc(C(F)(F)F)c2)o1)N1CCOCC1	-3.27%
Cc1ccc(C)c(NC(=O)CCC(=O)N/N=C/c2ccc3c(c2)OCO3)c1	13.4%
C/C(=N\Nc1ccc(Cl)c(C(=O)O)c1)c1ccc[nH]1	6.73%
COc1ccc(CCC(=O)OCC(=O)N(C)c2c(N)n(Cc3ccccc3)c(=O)[nH]c2=O)cc1	14.7%
O=C(NC1CCSc2ccccc21)c1cccc(OC(F)F)c1 (stereo not drawn)	13.9%
COC(=O)C(Cc1ccccc1)OS(N)(=O)=O (stereo not drawn)	14.1%
CC(=O)N1CCN(C(=O)COc2ccccc2C(=O)Nc2ccccc2)CC1	-0.641%
CCOC(=O)c1cc2c(=O)n3ccccc3nc2n(Cc2ccco2)c1=NC(=O)c1ccccc1OC	-6.81%
COc1ccc(C2/C=C\CN(C(=O)C3CC3)CC(=O)N2Cc2ccc(F)cc2)cc1 (stereo not drawn)	5.2%
CC1CC(C)CN(C(=O)CNC(=O)c2sc3ccccc3c2Cl)C1 (stereo not drawn)	-2.61%
Cc1cccc(NS(=O)(=O)c2cccc(C(=O)NCC(C)(C)N3CCOCC3)c2)c1	4.12%
COc1ccc(S(=O)(=O)N2CCCC2C(=O)Nc2ccc(O)cc2)cc1 (stereo not drawn)	7.62%
CCOc1ccc2ncc(S(=O)(=O)c3ccccc3)c(N3CCC4(CC3)OCCO4)c2c1	8.7%
NNC(=O)c1ccc(Cn2cc(Br)cn2)o1	10.4%
O=NC1=C(c2c(O)[nH]c3ccccc23)CCCC1	3.23%
Cl.N#Cc1cccc(C(c2nnnn2C2CCCC2)N2CCCCCC2)c1 (stereo not drawn)	-4.35%

Structure (SMILES)	hERG current change (%, negative = inhibition) at 1uM
O=C(CSc1ccc(-c2ccc(Cl)cc2)nn1)N1CCCc2ccccc21	9.22%
COC(=O)c1ccc(N/C=C\C(=O)c2ccc3c(c2)OCO3)cc1	12.3%
CN(C)c1ccc(NC(=O)CN2CCN(S(=O)(=O)c3cc(Cl)ccc3Cl)CC2)cc1	10%
COc1cc2cc(CN(Cc3cccnc3)C(=O)Nc3ccccc3F)c(=O)[nH]c2cc1OC	10.7%
C=C(C)COc1ccc(-c2[nH]ncc2Oc2cccc(OC)c2)c(O)c1	5.36%
CC(C)c1nc(N2CCOCC2)c(C#N)c2c1CCCC2	12.6%
N#CCSc1nnc(-c2cccnc2)n1-c1ccccc1	0.0664%
COc1ccc(NS(=O)(=O)c2cccc(C(=O)NCCCN3CCOCC3)c2)cc1	18.1%
CCOC(=O)c1cnc(-c2ccccc2)nc1N1CC(C)OC(C)C1 (stereo not drawn)	5.14%
CCn1c(COc2cccc(C)c2)nnc1SCC(=O)Nc1cccc(C(=O)O)c1	4.22%
COc1ccccc1CNC(=O)c1ccc(N2CCOCC2)c([N+](=O)[O-])c1	14.1%
COc1ccc(C(=O)NCCCn2ccnc2)cc1[N+](=O)[O-]	3.98%
O=C(NCCc1ccc2c(c1)OCCO2)c1ccc(F)cc1	7.64%
N#CC(C#N)=NNc1ccc(S(=O)(=O)N2CCCC2)cc1	-2.92%
COc1ccc([C@H]2CC(=O)C=C(c3ccc(Cl)c(C(F)(F)F)c3)C2)cc1OC	13.9%
CCCCn1c(N)c(C(=S)NC(=O)CC(C)(C)C)c(=O)n(C)c1=O	11.1%
O=C(Nc1ncnc2sc3c(c12)CCCC3)c1ccncc1	14.9%
COC(=O)c1cc(CSc2nc3ccccc3c(=O)n2C)oc1C	14.5%
N#CCC(=O)Nc1ncc(Cc2ccccc2Cl)s1	10.9%
CCOC(=O)c1cc(-c2ccco2)nc2c1c(C)nn2CCC#N	1.22%
CCCCC(c1nnnn1CC1CCCO1)N1CCN(c2ccccc2)CC1.Cl (stereo not drawn)	13.8%
CCOC(=O)C(C(=O)NCc1ccc(F)cc1)c1ncc(C(F)(F)F)cc1Cl (stereo not drawn)	8.18%
